# Laboratory results as given in patent US11161864B2, “Sting agonists” (Venenum Biodesign, LLC, priority 2018, dated 2021).
# Where two headings read alike, the source gives them in different places.
# Tests used:
# [1] = system: STING pathway, RAW-Dual Reporter cell line; test: cells; details: for EC50: read-out: Murine Agonist EC50
# [2] = target: T1, HAQ STING protein, THP1 Dual (HAQ) human cells (Homo sapiens (Human), UniProt Q86WV6, G230A/H232R/R293Q/R71H)
# [3] = target: T2, wildtype (WT) STING protein, THP1 Dual (WT) human cells (Homo sapiens (Human), UniProt Q86WV6, H232R)
# [4] = target: T1, HAQ STING protein, THP1 Dual (HAQ) human cells; test: cell-based; details: Human HAQ Agonist EC50, 5 hrs
# [5] = target: T2, wildtype (WT) STING protein, THP1 Dual (WT) human cells; test: cell-based; details: Human WT Agonist EC50, 5 hrs
# T1 sequence (Q86WV6 whole entry R71H/G230A/H232R/R293Q): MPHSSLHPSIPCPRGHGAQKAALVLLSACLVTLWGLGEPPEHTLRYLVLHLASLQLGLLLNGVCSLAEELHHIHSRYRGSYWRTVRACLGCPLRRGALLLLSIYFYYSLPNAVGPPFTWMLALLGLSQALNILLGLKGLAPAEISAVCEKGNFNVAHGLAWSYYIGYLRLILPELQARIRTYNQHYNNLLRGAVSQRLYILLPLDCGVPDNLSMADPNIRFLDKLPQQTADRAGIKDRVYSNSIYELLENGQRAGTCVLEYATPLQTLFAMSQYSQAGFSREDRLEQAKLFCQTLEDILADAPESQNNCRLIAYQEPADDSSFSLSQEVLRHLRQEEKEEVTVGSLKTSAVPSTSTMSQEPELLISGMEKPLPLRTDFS
# T2 sequence (Q86WV6 whole entry H232R): as the sequence (Q86WV6 whole entry R71H/G230A/H232R/R293Q) above, with H71R, A230G, Q293R counted along it
Compound,Murine Agonist Efficacy ([1]; 5 hrs),EC50 ([1]; 5 hrs),Human HAQ Agonist Efficacy ([2]; 5 hrs),Human WT Agonist Efficacy ([3]; 5 hrs),EC50 [4],EC50 [5],Human HAQ Agonist Efficacy [2],Human WT Agonist Efficacy [3],Murine Agonist Efficacy [1],EC50 [1]
"Nc1nc2c(ncn2[C@@H]2O[C@@H]3COP(=O)(S)OCCn4c(nc5cncnc54)COP(=O)(S)O[C@@H]2[C@@H]3F)c(=O)[nH]1 (single isomer, unassigned) [Example 1A]",>100%,< 10 µM,>100%,<100%,10 to 99.9 µM,10 to 99.9 µM,–,–,–,–
"Nc1nc2c(ncn2[C@@H]2O[C@@H]3COP(=O)(S)OCCn4c(nc5cncnc54)COP(=O)(S)O[C@@H]2[C@@H]3F)c(=O)[nH]1 (single isomer, unassigned) [Example 1D]",>100%,< 10 µM,>100%,<100%,< 10 µM,10 to 99.9 µM,–,–,–,–
"O=c1[nH]cnc2c1ncn2[C@@H]1O[C@@H]2COP(=O)(S)OCCn3c(nc4cncnc43)COP(=O)(S)O[C@@H]1[C@@H]2F (stereo partly drawn) [Example 21D, (1S,21R,23R,24R)-24-Fluoro-23-(6-oxo-6,9-dihydro-1H-purin-9-yl)-3,18-disulfanyl-2,4,17,19,22-pentaoxa-7,10,12,14-tetraaza-3lambda5,8lambda5-diphosphatetracyclo[19.2.1.06,14.08,13]tetracosa-6,8,10,12-tetraene-3,18-dione]",>100%,10 to 99.9 µM,<100%,<100%,–,–,–,–,–,–
"Nc1nc2c(nc3n2CCOP(=O)(S)OC[C@H]2O[C@@H](n4cnc5c(N)ncnc54)[C@H](OP(=O)(S)OC3)[C@@H]2F)c(=O)[nH]1 (stereo partly drawn) [Example 23D, (1S,21R,23R,24R)-11-Amino-23-(6-amino-9H-purin-9-yl)-24-fluoro-3,18-disulfanyl-2,4,17,19,22-pentaoxa-7,10,12,14-tetraaza-3lambda5,18lambda5-diphosphatetracyclo[19.2.1.06,14.08,13]tetracosa-6,8(13),11-triene-3,9,18-trione]",>100%,–,–,–,–,–,>100%,<100%,–,–
"Nc1nc2c(ncn2[C@@H]2O[C@@H]3COP(=O)(S)OCCn4c(nc5cncnc54)COP(=O)(S)O[C@@H]2[C@H]3F)c(=O)[nH]1 (stereo partly drawn) [Example 25C, (1S,21R,23R,24S)-23-(2-Amino-6-oxo-6,9-dihydro-1H-purin-9-yl)-24-fluoro-3,18-disulfanyl-2,4,17,19,22-pentaoxa-7,10,12,14-tetraaza-3lambda5,18lambda5-diphosphatetracyclo[19.2.1.06,14.08,13]tetracosa-6,8,10,12-tetraene-3,18-dione]",<100%,–,>100%,<100%,–,–,–,–,–,–
"CO[C@H]1[C@H]2OP(=O)(S)OCc3nc4cncnc4n3CCOP(=O)(S)OC[C@H]1O[C@H]2n1cnc2c(=O)[nH]c(N)nc21 (stereo partly drawn) [Example 27D, (1R,21R,23R,24R)-23-(2-Amino-6-oxo-6,9-dihydro-1H-purin-9-yl)-24-methoxy-3,18-disulfanyl-2,4,17,19,22-pentaoxa-7,10,12,14-tetraaza-3lambda5,18lambda5-diphosphatetracyclo[19.2.1.06,14.08,13]tetracosa-6,8,10,12-tetraene-3,18-dione]",>100%,–,>100%,>100%,–,–,–,–,–,–
"Nc1nc2c(ncn2[C@@H]2O[C@@H]3COP(=O)(S)OCCn4nc(-c5ccncc5)nc4COP(=O)(S)O[C@@H]2[C@@H]3F)c(=O)[nH]1 (stereo partly drawn) [Example 34D, (1S,17R,19R,20R)-19-(2-Amino-6-oxo-6,9-dihydro-1H-purin-9-yl)-20-fluoro-8-(pyridin-4-yl)-3,14-disulfanyl-2,4,13,15,18-pentaoxa-7,9,10-triaza-3lambda5,14lambda5-diphosphatricyclo[15.2.1.06,10]icosa-6,8-diene-3,14-dione]",<100%,–,–,–,–,–,<100%,<100%,–,–
"NC(=O)c1cnc2c(c1)nc1n2CCOP(=O)(S)OC[C@H]2O[C@@H](n3cnc4c(=O)[nH]c(N)nc43)[C@H](OP(=O)(S)OC1)[C@@H]2F (stereo partly drawn) [Example 37B, (1S,21R,23R,24R)-23-(2-Amino-6-oxo-6,9-dihydro-1H-purin-9-yl)-24-fluoro-3,18-dioxo-3,18-disulfanyl-2,4,17,19,22-pentaoxa-7,12,14-triaza-3lambda,5,18lambda5-diphosphater]",–,–,–,–,–,–,>100%,>100%,>100%,< 10 µM
